Reference: PubChem BioAssay AID504339 (National Center for Advancing Translational Sciences (NCATS), 2011)
About 17,000 (4.4%) of roughly 390,000 compounds were called active. The inconclusive results got no clear call from the source; some entries with a clear call stand among them for comparison. The call rests on the fitted dose curve; in most records, active means well fitted inhibition curve with a large enough effect; inconclusive means small, poorly fitted or top-dose-only effect; inactive means no such curve, though single readings can be large or run the other way. Potencies beside an inconclusive call are fits to weak or partial responses and may not hold up.

The molecules below were run against Lysine-specific demethylase 4A (Homo sapiens) (UniProt O75164) (assay: qHTS Assay for Inhibitors of JMJD2A-Tudor Domain). Conditions: AlphaScreen JMJD2A-Tudor / H3K4me3 peptide binding; series mostly up to 114 µM.
Further: nearly all actives have a fitted effect of over 50% in size.
Potency means the concentration at half of the fitted maximal effect; tags describe the fitted curve by direction and shape.

UniProt O75164, sequence (O75164 whole entry, looked up, the tested form may be a part): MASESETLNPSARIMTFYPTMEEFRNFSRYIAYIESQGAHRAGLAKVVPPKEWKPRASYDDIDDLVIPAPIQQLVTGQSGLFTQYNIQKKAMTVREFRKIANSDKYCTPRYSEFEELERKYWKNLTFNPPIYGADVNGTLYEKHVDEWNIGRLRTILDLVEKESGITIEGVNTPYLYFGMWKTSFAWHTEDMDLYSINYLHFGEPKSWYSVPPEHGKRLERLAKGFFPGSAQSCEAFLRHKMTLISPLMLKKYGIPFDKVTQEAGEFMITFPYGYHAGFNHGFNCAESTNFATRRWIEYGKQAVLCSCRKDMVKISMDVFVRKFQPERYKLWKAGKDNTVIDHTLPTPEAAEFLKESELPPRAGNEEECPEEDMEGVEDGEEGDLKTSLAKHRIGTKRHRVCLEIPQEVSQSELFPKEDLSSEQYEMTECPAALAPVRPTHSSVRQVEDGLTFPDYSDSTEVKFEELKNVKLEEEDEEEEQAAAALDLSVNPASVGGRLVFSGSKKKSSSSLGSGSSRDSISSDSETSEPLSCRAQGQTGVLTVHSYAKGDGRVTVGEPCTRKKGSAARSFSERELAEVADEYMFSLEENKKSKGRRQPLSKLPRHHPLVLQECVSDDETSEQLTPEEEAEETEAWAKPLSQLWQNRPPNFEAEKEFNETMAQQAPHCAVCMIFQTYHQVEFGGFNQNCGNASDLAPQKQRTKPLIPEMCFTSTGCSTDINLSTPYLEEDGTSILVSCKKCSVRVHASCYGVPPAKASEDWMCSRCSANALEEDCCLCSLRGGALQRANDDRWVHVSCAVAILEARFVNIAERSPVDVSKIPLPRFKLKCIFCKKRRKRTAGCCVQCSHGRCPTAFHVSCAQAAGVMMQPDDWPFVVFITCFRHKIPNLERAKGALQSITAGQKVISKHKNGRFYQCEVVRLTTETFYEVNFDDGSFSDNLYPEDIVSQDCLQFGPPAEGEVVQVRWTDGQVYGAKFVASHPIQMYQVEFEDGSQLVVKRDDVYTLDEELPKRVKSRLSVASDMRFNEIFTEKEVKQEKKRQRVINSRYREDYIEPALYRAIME

| SMILES | Potency |
| --- | --- |
| CCC(C)Sc1cccc(-c2nc3ccc(C)cn3c2NC2CCCCC2)c1 (stereo unspecified) | inconclusive: 63.1 µM [inhibitor, partial curve, poor fit] |
| CCOC(=O)c1c(C)n(C)c2cc(Br)c(O)c(O)c12 | active: 10 µM |
| O=C(NCc1n[nH]c(=S)n1-c1ccccc1)c1ccc(S(=O)(=O)N2CCOCC2)cc1 | active: 7.08 µM |
| Cc1ccc2nc(-c3ccccc3)cc(C(=O)N3CCN(c4ccccc4O)CC3)c2c1 | inconclusive: 50.1 µM [inhibitor, partial curve] |
| COc1cc(C(=O)N/N=C/c2ccc(OC(=O)c3ccccc3Cl)c(OC)c2)ccc1O | inconclusive: 35.5 µM [inhibitor, full curve] |
| Cc1nc(NC(=O)CN2CCOCC2)sc1C(=O)N(C)C | active: 15.8 µM |
| C/C=C/c1ccc(OCCCCN2CCC(C)CC2)c(OC)c1 | active: 3.16 µM |
| CC(C)(C)c1ccc(C(=O)NCCC(=O)NCc2cccs2)cc1 | inconclusive: 14.1 µM [inhibitor, full curve, poor fit] |
| COc1cccc2c1C(=O)c1c(O)c3c(c(O)c1C2=O)C[C@@](O)(C(C)=O)C[C@@H]3O[C@H]1C[C@H](N)[C@H](O)[C@H](C)O1 | inconclusive: 39.8 µM [inhibitor, partial curve] |
| CCN(CC)CCN(C(=O)c1ccc2c(c1)CCCC2)c1nc2ccc(C)cc2s1 | inconclusive: 28.2 µM [inhibitor, partial curve] |
| CC(C)C[C@H](NC(=O)N1CC(=O)Nc2ccccc21)C(=O)N[C@H](C(=O)O)c1ccccc1 | inactive |
| O=C(O)CCCCCNc1nc2ncn(Cc3ccccc3)c2c(=O)[nH]1 | inactive |
| Cc1c(N=c2scc(-c3ccccc3)n2CCO)c(=O)n(-c2ccccc2)n1C | inactive |
| CCn1cc(CNC(=O)C2CCC(=O)N(CCc3cccc(F)c3)C2)cn1 (stereo unspecified) | inconclusive: 3.98 µM [inhibitor, single point] |
| Cc1nc(-c2ccc(S(=O)(=O)NCc3ccc(OC(C)C)cc3)cc2)co1 | inactive |
| COc1cc(NC(=O)Cn2cnc3sc(C)c(S(=O)(=O)N4CCC(C)CC4)c3c2=O)cc(OC)c1OC | inactive |
| NC(=O)CC(NC(=O)Cc1cccc2ccccc12)c1ccc(N2CCC(Cc3ccccc3)CC2)c([N+](=O)[O-])c1 (stereo unspecified) | inconclusive: 50.1 µM [inhibitor, partial curve, poor fit] |
| COc1ccc(OC)c([N+](=O)[O-])c1C(N)=O | active: 50.1 µM |
| COc1ccc(N2C(=O)C(C)(C)C2c2c(O)ccc3ccccc23)cc1 (stereo unspecified) | inconclusive: 56.2 µM [inhibitor, partial curve] |
| Cc1ccc(N=C2C(=O)Nc3ccccc32)c(C)c1 | inconclusive: 15.8 µM [inhibitor, partial curve] |
| CNC(=O)c1cc(Oc2ccc(NC(=O)Nc3ccc(Cl)c(C(F)(F)F)c3)cc2)ccn1 | inconclusive: 44.7 µM [inhibitor, partial curve] |
| CCN(C(=O)CSc1nc2ccccc2c(=O)n1-c1cccc(C)c1)C1CCS(=O)(=O)C1 (stereo unspecified) | inconclusive: 22.4 µM [inhibitor, full curve] |
| O=C(CCN1C(=O)c2cccc([N+](=O)[O-])c2C1=O)Nc1nccs1 | inactive |

| SMILES | Potency |
| --- | --- |
| Cc1ccc(S(=O)(=O)N2CCN(Cc3ccc4c(c3)OCO4)CC2)cc1 | inconclusive: 79.4 µM [inhibitor, partial curve] |
| Cc1ccc(-n2nc(C)c3c(C)c(CCC(=O)Nc4ccc(CN5CCCC5)cc4)c(C)nc32)cc1 | inconclusive: 17.8 µM [inhibitor, full curve] |
| C=CCn1c(SCC(=O)Nc2ccc3c(c2)OCO3)nnc1-c1ccccc1OC | inactive |
| Cc1ccc(-c2csc(-c3c[nH]c4ccccc34)n2)cc1 | inconclusive: 28.2 µM [inhibitor, full curve, poor fit] |
| CC(NS(=O)(=O)c1ccccc1)C1COc2ccccc2O1 (stereo unspecified) | inactive |
| CCCCOc1ccc(CNC(=O)C2CCCN(c3nnc(-n4c(C)ccc4C)s3)C2)cc1 (stereo unspecified) | inactive |
| CCOC(=O)c1sc2ncnc(N3CCN(c4ccc(OC)cc4)CC3)c2c1C | inconclusive: 15.8 µM [inhibitor, partial curve] |
| O=C(NCCc1ccccn1)c1cncc(Br)c1 | inactive |
| O=c1c2ccccc2n(Cc2c(F)cccc2Cl)c(=O)n1Cc1ccccc1 | inactive |
| O=S(=O)(NCC(c1ccccc1)N1CCc2ccccc21)c1ccccc1 (stereo unspecified) | active: 22.4 µM |
| CCC(Oc1ccc2c(c1)C(=O)CC(C)(C)O2)C(=O)NCCN1CCCCCC1 (stereo unspecified) | active: 44.7 µM |
| Cc1ccc(N2CC(C(=O)Nc3ccccc3C(=O)NC3CCCCC3)CC2=O)cc1C (stereo unspecified) | active: 20 µM |
| CS(=O)(=O)c1ccccc1-c1nnc(NC(=O)Cc2ccccc2)o1 | active: 79.4 µM |
| S=C(Nc1ccc(Oc2ccccc2)cc1)N1CCN(c2ccccn2)CC1 | inactive |
| Cc1ccc(Cn2c(CNC(=O)Cc3cccc([N+](=O)[O-])c3)nc3cccnc32)cc1 | inactive |
| COc1cc2c(cc1OC)C(COc1ccc(F)cc1)N(C(=O)Cc1ccccc1)CC2 (stereo unspecified) | inconclusive: 50.1 µM [inhibitor, partial curve] |
| CCN(CCCNC(=O)CCn1c(=O)[nH]c2ccccc2c1=O)c1cccc(C)c1 | inactive |
| COc1ccc(C(C)=O)cc1CSc1nnc(Nc2ccccc2C)s1 | inactive |
| COc1ccc(/C=N/NC(=O)CN2CCSCC2)cc1C | active: 3.55 µM |
| COc1ccccc1N1CCN(C2CCN(S(=O)(=O)c3ccc4ccccc4c3)CC2)CC1 | inconclusive: 70.8 µM [inhibitor, partial curve, poor fit] |
| COc1ccc(-c2ccc(CCC(=O)O)n2-c2ccc(O)cc2)cc1 | inconclusive: 1.58 µM [inhibitor, full curve, poor fit] |
| Cc1sc2nc(CN3CCOCC3)nc(NCCc3ccccc3)c2c1C | inconclusive: 50.1 µM [inhibitor, partial curve, poor fit] |
| CCN1C(=O)[C@H]2[C@H]3CN=C(SCC4CC4)N3[C@@](Cc3ccccc3)(C(=O)OC)[C@H]2C1=O | active: 89.1 µM |
